# Test results taken from PubChem BioAssay AID504333 (National Center for Advancing Translational Sciences (NCATS), 2011).
# The campaign covered roughly 360,000 compounds. About 16,000 (4.4%) were called active. This list was built around the results that the source calls inconclusive (neither active nor inactive); the mix of calls is not that of the screen. The call rests on the fitted dose curve; in most records, active means well fitted inhibition curve with a large enough effect; inconclusive means small, poorly fitted or top-dose-only effect; inactive means no such curve, though single readings can be large or run the other way. Potencies beside an inconclusive call are fits to weak or partial responses and may not hold up.
# Biological target: Bromodomain adjacent to zinc finger domain protein 2B (Homo sapiens) (UniProt Q9UIF8)
# Chain of UniProt Q9UIF8 (Q9UIF8 whole entry, looked up, the tested form may be a part): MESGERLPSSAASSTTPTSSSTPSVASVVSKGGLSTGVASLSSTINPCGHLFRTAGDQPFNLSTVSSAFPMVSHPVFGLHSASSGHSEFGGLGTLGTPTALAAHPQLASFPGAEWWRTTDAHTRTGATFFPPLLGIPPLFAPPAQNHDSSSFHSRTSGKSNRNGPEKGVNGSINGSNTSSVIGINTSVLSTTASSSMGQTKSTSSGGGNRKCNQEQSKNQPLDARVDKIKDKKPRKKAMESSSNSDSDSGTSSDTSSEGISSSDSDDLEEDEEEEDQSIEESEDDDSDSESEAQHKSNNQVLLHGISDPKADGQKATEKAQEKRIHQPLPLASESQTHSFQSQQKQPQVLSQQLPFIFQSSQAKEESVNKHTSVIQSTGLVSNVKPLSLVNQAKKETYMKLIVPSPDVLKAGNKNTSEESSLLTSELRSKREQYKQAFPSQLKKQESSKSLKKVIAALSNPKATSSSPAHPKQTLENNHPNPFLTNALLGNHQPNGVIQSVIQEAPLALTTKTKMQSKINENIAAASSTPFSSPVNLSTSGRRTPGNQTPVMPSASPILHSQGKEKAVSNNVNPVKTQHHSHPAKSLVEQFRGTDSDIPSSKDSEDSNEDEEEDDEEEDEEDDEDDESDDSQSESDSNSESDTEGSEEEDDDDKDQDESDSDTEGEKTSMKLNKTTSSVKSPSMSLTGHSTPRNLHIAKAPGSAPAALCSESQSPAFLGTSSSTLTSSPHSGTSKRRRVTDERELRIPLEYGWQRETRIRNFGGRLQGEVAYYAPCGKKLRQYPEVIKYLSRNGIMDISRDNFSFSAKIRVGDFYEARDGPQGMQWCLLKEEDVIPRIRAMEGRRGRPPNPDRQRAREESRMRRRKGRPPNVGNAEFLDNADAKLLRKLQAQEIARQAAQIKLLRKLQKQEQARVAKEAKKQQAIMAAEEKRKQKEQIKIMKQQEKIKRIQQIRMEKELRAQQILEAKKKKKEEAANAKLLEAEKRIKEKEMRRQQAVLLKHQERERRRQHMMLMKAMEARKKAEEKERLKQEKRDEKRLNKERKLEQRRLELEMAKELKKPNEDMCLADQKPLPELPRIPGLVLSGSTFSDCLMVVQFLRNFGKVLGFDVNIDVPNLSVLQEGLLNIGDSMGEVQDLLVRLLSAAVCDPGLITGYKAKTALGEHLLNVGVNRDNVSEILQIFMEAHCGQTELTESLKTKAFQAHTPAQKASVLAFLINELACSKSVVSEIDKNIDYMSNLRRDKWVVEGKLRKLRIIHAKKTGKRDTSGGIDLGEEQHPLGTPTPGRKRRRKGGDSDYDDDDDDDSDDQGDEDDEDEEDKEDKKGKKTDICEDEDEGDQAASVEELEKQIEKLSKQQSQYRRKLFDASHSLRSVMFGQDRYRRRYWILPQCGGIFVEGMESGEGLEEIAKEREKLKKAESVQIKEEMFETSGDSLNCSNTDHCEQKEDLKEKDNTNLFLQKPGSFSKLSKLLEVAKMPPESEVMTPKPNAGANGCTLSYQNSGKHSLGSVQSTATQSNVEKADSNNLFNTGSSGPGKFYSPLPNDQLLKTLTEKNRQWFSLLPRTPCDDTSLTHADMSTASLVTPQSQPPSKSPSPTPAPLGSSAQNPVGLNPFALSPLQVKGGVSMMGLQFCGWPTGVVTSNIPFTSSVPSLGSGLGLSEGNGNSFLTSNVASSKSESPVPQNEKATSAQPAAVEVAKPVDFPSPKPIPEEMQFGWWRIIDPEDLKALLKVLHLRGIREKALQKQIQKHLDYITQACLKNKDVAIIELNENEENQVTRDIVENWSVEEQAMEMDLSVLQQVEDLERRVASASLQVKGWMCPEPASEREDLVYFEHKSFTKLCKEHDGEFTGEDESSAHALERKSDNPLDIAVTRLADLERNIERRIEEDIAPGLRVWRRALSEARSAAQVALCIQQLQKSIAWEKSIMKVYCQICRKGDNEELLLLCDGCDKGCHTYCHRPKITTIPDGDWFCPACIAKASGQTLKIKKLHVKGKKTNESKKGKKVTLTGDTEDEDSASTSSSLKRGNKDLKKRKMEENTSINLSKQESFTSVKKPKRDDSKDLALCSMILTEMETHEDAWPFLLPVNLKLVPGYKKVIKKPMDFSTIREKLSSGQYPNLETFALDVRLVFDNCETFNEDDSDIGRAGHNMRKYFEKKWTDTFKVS
# Experiment: qHTS Assay for Inhibitors of BAZ2B; further: nearly all actives have a fitted effect of over 60% in size
# Conditions: AlphaScreen BAZ2B-H3K14Ac peptide displacement; series mostly up to 114 µM
# Procedure, shortened: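 Compounds, titrated to a top concentration of 110 uM, were incubated 30 min at room temperature with preformed BAZ2B/acetyl-K14 H3 peptide complex (50 nM each). Proximity signal was measured by AlphaScreen after 20 min with beads.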
# Potency means the concentration at half of the fitted maximal effect; tags describe the fitted curve by direction and shape.
row,Compound,Potency
1,CC(C)c1ccc(NC2CCCN(C(=O)c3ccco3)C2)cc1 (stereo unspecified),"inconclusive: 17.8 µM [inhibitor, partial curve]"
2,CC(=O)c1ccc(NC(=O)C2=CC(c3ccco3)=NS(=O)(=O)N2C)cc1,inactive
3,COc1cccc(NC2=CC(c3ccc(C(C)C)cc3)N(c3cccc(OC)c3)C2=O)c1 (stereo unspecified),"inconclusive: 39.8 µM [inhibitor, partial curve]"
4,N#CCCN1CCN(S(=O)(=O)c2ccc(S(=O)(=O)N3CCCCCC3)cc2)CC1,inactive
5,CC1CN(Cc2ccccn2)CCC1=O (stereo unspecified),inactive
6,CCOC(=O)CN1NC2(CCC(C)CC2)NC1=S (stereo unspecified),"inconclusive: 100 µM [inhibitor, single point]"
7,Cc1cc(-c2n[nH]c(=S)n2/N=C/C(Cl)=C/c2ccccc2)n[nH]1,"inconclusive: 70.8 µM [inhibitor, single point]"
8,CSc1ccc(/C=C(/NC(=O)c2ccccc2)C(=O)NCCCn2ccnc2)cc1,"inconclusive: 79.4 µM [inhibitor, partial curve]"
9,C=CCn1c(-c2ccco2)n[nH]c1=S,inactive
10,O=c1oc2ccccc2c(Nc2cc3ccccc3cc2O)c1[N+](=O)[O-],active: 11.2 µM
11,C=CCn1c(-c2cc3cccc(OC)c3o2)n[nH]c1=S,"inconclusive: 79.4 µM [inhibitor, single point]"
12,COc1ccc(N2CCN(CCCNC(=O)c3ccc(CS(=O)(=O)c4ccc(Cl)cc4)o3)CC2)cc1,active: 28.2 µM
13,Cc1ccc(Sc2ccc(CN3CCCCC3)cc2[N+](=O)[O-])cc1,"inconclusive: 56.2 µM [inhibitor, partial curve, poor fit]"
14,O=C(c1cccn1-c1nnc(N2CCCC2)s1)N1CCN(c2ccc(F)cc2)CC1,inactive
15,COc1cccc(C(=O)C2CN(c3ccccc3)CC2c2ccc(Cl)cc2)c1 (stereo unspecified),"inconclusive: 100 µM [inhibitor, single point]"
16,C/C(=N\NC(=S)Nc1ccc(C)cc1)c1cccc(N)c1,"inconclusive: 50.1 µM [inhibitor, partial curve]"
17,CC(=O)Oc1ccc(C(=O)[C@H]2[C@H]3C(=O)N(c4cccc5ccccc45)C(=O)[C@H]3[C@@H]3C=CC=NN32)cc1,"inconclusive: 89.1 µM [inhibitor, single point]"
18,Cc1nc(N)c(S(=O)(=O)c2ccccc2)c(Nc2ccc(Br)cc2)n1,inactive
19,Cc1ccccc1NC(=O)c1c2c(nc3ccccc13)CCC2,"inconclusive: 89.1 µM [inhibitor, single point]"
20,COc1ccc(N2CCN(C(c3cccc(OC)c3OC)c3nnnn3C3CCCC3)CC2)cc1 (stereo unspecified),active: 39.8 µM
21,COc1ccc(NC(=O)CCS(=O)(=O)c2cc3c4c(c2)CCN4C(=O)CC3)cc1OC,inactive
22,O=C(CSc1ncnc2sc3c(c12)CCC3)Nc1ccccc1C(=O)O,inactive
23,Cc1cc(O)c2c(c1)C(=O)c1cccc(O)c1C2=O,inactive
24,Cc1nc2sc(C(c3ccco3)N3CCN(c4cccc(Cl)c4)CC3)c(O)n2n1 (stereo unspecified),"inconclusive: 50.1 µM [inhibitor, partial curve]"
25,CCC(C)C(NC(=O)c1ccc(Cl)cc1)C(=O)O (stereo unspecified),"inconclusive: 89.1 µM [inhibitor, single point]"
26,Nn1c(COc2cccc(Cl)c2)nc2ccccc2c1=O,inactive

row,Compound,Potency
1,O=S(=O)(Nc1ccc(N2CCCCC2)cc1)c1cccs1,"inconclusive: 44.7 µM [inhibitor, partial curve]"
2,CCOc1ccccc1OCCCC(=O)Nc1nc2ccccc2[nH]1,inactive
3,COc1ccc(-c2nc(-c3cccs3)c(-c3cccs3)[nH]2)cc1O,active: 44.7 µM
4,CC(=O)N1CN(CCCn2ccnc2)Cc2c1sc1c2CCCC1,"inconclusive: 89.1 µM [inhibitor, single point]"
5,O=C(O)CCN1CCOCC1,inactive
6,COC(=O)c1ccc(CN2CCCC(CNC(=O)Cc3ccc(OC)cc3)C2)cc1 (stereo unspecified),"inconclusive: 89.1 µM [inhibitor, single point]"
7,Cc1cc(N2CCN(C)CC2)nc2ccc(NC(=S)NCCCN3CCN(C)CC3)cc12,inactive
8,Cc1cccc(C)c1NC(=O)NC1(C(=O)NCC2CCCO2)CCCCC1 (stereo unspecified),inactive
9,CCOC(=O)C1Nc2ccc(C(=O)O)cc2C2C=CCC12 (stereo unspecified),active: 39.8 µM
10,CCOc1cc(/C=N/N=C2/NC(=O)C(CC(=O)O)S2)ccc1OCc1ccccc1Cl (stereo unspecified),active: 50.1 µM
11,COc1ccccc1/C=C1/SC(=O)N(CCC(=O)Nc2ccc(S(=O)(=O)Nc3nccs3)cc2)C1=O,"inconclusive: 35.5 µM [inhibitor, full curve]"
12,CCOc1ccccc1NC(=O)CSc1nnc(-c2ccco2)n1Cc1ccco1,"inconclusive: 79.4 µM [inhibitor, single point]"
13,O=C(c1ccco1)N1CCN(C(=O)C2CCN(S(=O)(=O)c3cccs3)CC2)CC1,inactive
14,O=C(C1=C(O)C(=O)N(CCOCCO)C1c1ccccn1)c1cccs1 (stereo unspecified),active: 50.1 µM
15,Cc1ccc(NS(=O)(=O)c2c(C)nc3sc(C)c(C)n3c2=O)cc1F,inactive
16,COc1ccc(-n2cc(-c3ccccc3)c3c(N4CCOCC4)ncnc32)cc1,"inconclusive: 17.8 µM [inhibitor, full curve]"
17,CC[N+](CC)(CC)CCOc1ccc(/C=C/c2ccccc2)cc1,active: 56.2 µM
18,Cc1ccc(C)c(N2CCN(C(c3ccccc3)c3nnc(-c4ccccc4)o3)CC2)c1 (stereo unspecified),"inconclusive: 50.1 µM [inhibitor, partial curve]"
19,CCN(CC)CCCNC(=O)c1cc(Nc2ccc(OC)cc2OC)nc2ccccc12,"inconclusive: 70.8 µM [inhibitor, single point]"
20,CC(=O)c1ccc(NC(=S)NCc2ccco2)cc1,"inconclusive: 70.8 µM [inhibitor, single point]"
21,COCCC(=O)Nc1c(-c2ccccc2)c2cc(Br)ccc2[nH]c1=O,inactive
22,CCOc1ccc(NS(=O)(=O)c2cnc(Cl)c(Cl)c2)cc1,"inconclusive: 89.1 µM [inhibitor, single point]"
23,CCOc1cc(/C=C2\C(=O)N(c3nc(-c4ccc(Br)cc4)cs3)N=C2c2ccccc2)ccc1O,"inconclusive: 50.1 µM [inhibitor, partial curve]"
24,Cc1cc(-c2csc(N)n2)c(C)n1C,active: 50.1 µM
25,COc1cc(-c2nnc(NC(=O)C3=COCCO3)o2)cc(OC)c1OC,active: 39.8 µM
26,CCOc1ccc(S(=O)(=O)NCc2cccn2Cc2cccc(C)c2)cc1,inactive

row,Compound,Potency
1,CCc1n[nH]c(=S)n1/N=C/c1ccccn1,active: 50.1 µM
2,CCOC(=O)Cc1nnc(NC(=O)C(CC)Sc2nncn2C)s1 (stereo unspecified),"inconclusive: 89.1 µM [inhibitor, single point]"
3,CC(C)CC(=O)n1nc(-c2ccco2)nc1NCc1ccc(Cl)cc1,inactive
4,CCOC(=O)C1=C(CSc2nc3c(cc2C#N)CN(C)CC3)OC(N)=C(C#N)C1c1ccncc1 (stereo unspecified),"inconclusive: 70.8 µM [inhibitor, single point]"
5,COc1ccc(OC)c(N/C(C)=C/C(=O)c2ccncc2)c1,"inconclusive: 70.8 µM [inhibitor, single point]"
6,COc1cccc(CN2CCN(C(=O)c3cc(-c4cccnc4)nc4ccc(C)cc34)CC2)c1,"inconclusive: 70.8 µM [inhibitor, single point]"
7,CC(C)c1ccc(NC(=S)Nc2ccc3cn[nH]c3c2)cc1,"inconclusive: 5.01 µM [inhibitor, full curve, poor fit]"
8,CCCCn1c(N)c(N(CCOC)C(=O)CN2c3ccccc3CC2C)c(=O)[nH]c1=O (stereo unspecified),inactive
9,CCN(CC)CCCn1c2c(c(SCC(=O)Nc3ccc(OC(F)(F)F)cc3)nc1=O)CCC2,inactive
10,O=C(CNC(=S)N(Cc1ccccc1)Cc1cccnc1)N1CCOCC1,inactive
11,Cc1ccc(C)c(-c2nnc(NC(=O)c3ccco3)o2)c1,"inconclusive: 89.1 µM [inhibitor, single point]"
12,Cc1ccc2c(c1)-c1c(cnc3cc(-c4ccc(Cl)cc4)nn13)CO2,inactive
13,CCOc1ccc(CNC(=O)c2cccc(NC(=O)C3=C(C)OCCS3)c2)cc1,active: 50.1 µM
14,CC(C)OP(=O)(c1ccc(N(C)C)cc1)C(Nc1ccccc1)c1cccnc1 (stereo unspecified),"inconclusive: 89.1 µM [inhibitor, single point]"
15,COc1ccc(N2CCN(c3ccc(N4C(=O)COCC4=O)cc3[N+](=O)[O-])CC2)cc1,"inconclusive: 50.1 µM [inhibitor, partial curve]"
16,O=C(OCC(=O)N1CCCC1=O)c1nc(Cl)c(Cl)c(Cl)c1Cl,active: 70.8 µM
17,Cc1ccc(CCNC(=O)c2sc3nc4n(c(=O)c3c2C)CCCC4)cc1,"inconclusive: 89.1 µM [inhibitor, single point]"
18,CCN1C(=O)/C(=C2/C=Cc3cc(C)ccc3N2CC)N(C)C1=S,active: 39.8 µM
19,COc1cc(NS(=O)(=O)c2cc3[nH]c(=O)[nH]c3cc2C)cc(OC)c1OC,inactive
20,CN(C)S(=O)(=O)c1ccc(NC(=O)COC(=O)c2ccccn2)cc1,"inconclusive: 89.1 µM [inhibitor, single point]"
21,CCOC(=O)c1cc(S(=O)(=O)N2CCN(c3ccccc3OC)CC2)[nH]n1,inactive
22,CCOc1ccc(C2CC(=O)Nc3c2c(=O)[nH]c2ncnn32)cc1 (stereo unspecified),inactive
23,O=C(Nc1ccc2c(c1)OCCO2)c1cc2sccc2n1Cc1ccccc1,"inconclusive: 89.1 µM [inhibitor, single point]"
24,Cc1oc(/N=C/c2ccccc2O)c(C#N)c1C,inactive
